# Measured values as given in PubChem BioAssay AID540267 (National Center for Advancing Translational Sciences (NCATS), 2011).
# Out of some 340,000 compounds screened, about 530 (0.16%) were called active. The inconclusive results got no clear call from the source; some entries with a clear call stand among them for comparison. Cut-off read from the data, not from the text of the source: active = activity change below about -80%; inconclusive = between about -30% and that limit; inactive = weaker than that.
# Assay: Small Molecules that selectively kill Giardia lamblia: qHTS;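 note: parasites exposed to compound for two days anaerobically before the ATP read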
# Details: Giardia lamblia trophozoite viability; at 7.66 µM; stronger effect = lower value
# In short: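 Trophozoites 100 cells/well + cpd; 48 hrs, 37 deg C, anaerobic. ATPLite 1-Step added, 15-30 min RT, luminescence read (ATP-based viability).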
# % is set by controls: 0 for no effect and ±100 for the full control effect.
row,Compound,activity change
1,CCOC(=O)c1cc(S(=O)(=O)N2CCc3ccccc32)cn1C,inactive: 17.1%
2,CN1C(=O)C(O)(CC(=O)c2cccc(-n3cccc3)c2)c2ccccc21 (stereo not given),inconclusive: -31.9% [inhibitor]
3,Cc1onc(-c2ccccc2)c1C(=O)O/N=C(\N)c1ccc([N+](=O)[O-])o1,inconclusive: -69.6% [inhibitor]
4,COc1ccc(NC(=O)c2ccc(COc3ccc(C)cc3)o2)cc1,inconclusive: -43.1% [inhibitor]
5,C[C@@H]1CN([C@@H](C)CO)C(=O)c2cc(NC(=O)CCC(F)(F)F)ccc2O[C@H]1CN(C)Cc1ccc(Cl)c(Cl)c1,inconclusive: -35.3% [inhibitor]
6,CCC(=O)c1ccc(OCC(=O)Nc2ccc3nc(C)sc3c2)cc1,inconclusive: -32.8% [inhibitor]
7,O=C(Nc1cc(Cl)ccc1-n1cncn1)c1ccc([N+](=O)[O-])s1,inconclusive: -46.9% [inhibitor]
8,COc1ccc(OC)c2[nH]c(=O)c(CCNS(=O)(=O)c3ccccc3)cc12,inactive: 0.459%
9,COc1ccc(N2CCN(C(=O)NCc3ccc(C)cc3)CC2)cc1,inactive: -10.8%
10,COc1ccc2nc(N=Nc3ccc(N(C)C)cc3)sc2c1,active: -82.2%
11,CCOc1ccc(-n2c(SCc3ccc([N+](=O)[O-])cc3)nnc2-c2ccc(OC)cc2)cc1,inconclusive: -31.1% [inhibitor]
12,COc1ccc(-c2nc(NC(=O)C3CC(=O)N(Cc4ccco4)C3)sc2C)cc1 (stereo not given),inconclusive: -34.2% [inhibitor]
13,CCOc1ccc(-c2nnc(Nc3ccc(OC)c(C(=O)N4CCCCC4)c3)c3ccccc23)cc1,inactive: 3.35%
14,O=[N+]([O-])c1ccc(N2CCN(c3ccccc3Cl)CC2)cn1,inactive: -11.5%
15,CC(C)(C)Nc1nc2cc([N+](=O)[O-])ccc2o1,inconclusive: -30.8% [inhibitor]
16,C=CCOc1ccc(/C=C/C(=O)OCC(=O)Nc2c(C)n(C)n(-c3ccccc3)c2=O)cc1,inactive: 15.3%
17,COc1ccc(-c2ccc(NC(=O)c3ccco3)cc2)nn1,active: -93.1%
18,Cc1ccccc1Oc1ccc(NC(=O)C2CC=CCC2C(=O)O)cc1 (stereo not given),inconclusive: -36.5% [inhibitor]
19,COc1ccc(NC(=O)CSCc2cc(=O)n3c(C)csc3n2)cc1,inconclusive: -33.9% [inhibitor]
20,CC(=O)c1c(C)[nH]c(C(=O)COC(=O)CN2C(=O)C3CCCCC3C2=O)c1C (stereo not given),inactive: 18.2%
21,COc1ccc(-n2cc(-c3ccc(OC(F)F)cc3)[n+]3c2CCCCC3)cc1,inactive: 4.65%
22,COC(=O)C1=C(C)N(Cc2ccccc2)C(=NCc2cccc(C(F)(F)F)c2)N[C@H]1c1cccc(C(F)(F)F)c1,inactive: -6.43%
23,O=C(Nc1cccc(N2C(=O)C3CCCCC3C2=O)c1)c1ccccc1 (stereo not given),inconclusive: -30.5% [inhibitor]
24,Cc1ccccc1NC1=C(Cl)C(=O)OC1NC(=O)c1ccccc1 (stereo not given),inconclusive: -30.2% [inhibitor]
25,COc1ccccc1C(=O)N1N=C(c2ccc(NS(C)(=O)=O)cc2)CC1c1cccs1 (stereo not given),inactive: -3.96%

row,Compound,activity change
1,CNS(=O)(=O)c1cccc(C(=O)OCC(=O)c2ccc3c(c2)OCCO3)c1,inconclusive: -68.9% [inhibitor]
2,Cc1cccc(NC(=O)CSc2nc(C)nc3c2c(=O)n(C)c(=O)n3C)c1,inconclusive: -38.5% [inhibitor]
3,COCCCNC(=S)NNC(=S)Nc1cccc(Cl)c1,inactive: 2.15%
4,CC(=O)NC(CCCNC(=S)NC1CCCCC1)C(=O)O (stereo not given),inactive: 1.84%
5,CCc1ccc(N=c2c([N+](=O)[O-])nn(-c3ccccc3)n2O)cc1,inconclusive: -67.8% [inhibitor]
6,CCCN=C1N(CC)C[C@@H]2[C@@H]3C(=O)N(Cc4ccccc4)C(=O)[C@@H]3[C@](C)(C(=O)OC)N12,inconclusive: -35% [inhibitor]
7,CSc1ccc(/C=C/C(=O)OCC(=O)N2CCN(S(=O)(=O)c3ccc(C)cc3C)CC2)cc1,inconclusive: -37.1% [inhibitor]
8,COC(=O)c1cc2ccccc2oc1=O,inactive: 25.3%
9,Cc1ccc(CCNC(=O)CCn2c(=O)c3cccn3c3ccc(F)cc32)cc1,inconclusive: -39% [inhibitor]
10,CCOC(=O)c1[nH]c(C)c(C(=O)Nc2ccc3c(c2)CCC3)c1C,inconclusive: -32.5% [inhibitor]
11,Cc1cccc(Cl)c1OCCCn1ccnc1,inconclusive: -31.9% [inhibitor]
12,Cc1ccc(Cl)cc1NC(=S)N(C)N,inconclusive: -36.2% [inhibitor]
13,COc1ccc([C@@H]2CC=C(C(=O)O)[C@H](c3ccc(Cl)cc3)N2S(=O)(=O)c2ccc(C)cc2)cc1OC,inconclusive: -35.1% [inhibitor]
14,Cc1nc(SC2CC(=O)N(c3ccccc3)C2=O)nc2c1CCCC2 (stereo not given),inactive: -4.28%
15,Cc1cc2c(SCC(=O)NC3CCCC3)ncnc2s1,inconclusive: -31% [inhibitor]
16,COC(=O)CS(=O)(=O)c1ccc2c(c1)CC(=O)N2,inconclusive: -33.6% [inhibitor]
17,NC(=O)CC(NC(=O)Cc1cccc2ccccc12)c1ccc(NC2CCC2)c([N+](=O)[O-])c1 (stereo not given),inconclusive: -31.2% [inhibitor]
18,CC(=O)c1sc(NC(=O)c2ccc(C)cc2)nc1C,inconclusive: -59.9% [inhibitor]
19,CCOC(=O)c1cccc(C(=O)Nc2nc3ccc(OC)cc3s2)n1,inconclusive: -46.9% [inhibitor]
20,COC(=O)[C@]1(C)N[C@H](CN(C)S(=O)(=O)c2ccc(-c3ccccc3)cc2)[C@@H]2C(=O)N(C)C(=O)[C@@H]21,inconclusive: -50.6% [inhibitor]
21,O=C(c1ccccc1C(F)(F)F)N1CCN(S(=O)(=O)c2ccccc2)CC1,inactive: 11.4%
22,Cc1ccc(C(=O)c2c3ccc(C(F)(F)F)cc3[n+]([O-])n2CCCN)cc1,active: -89.8%
23,Cc1ccc(NC(=O)c2ccc3nc(N4CCOCC4)sc3c2)c(Cl)c1,inconclusive: -31.8% [inhibitor]
24,CN(CCOc1ccc(Cl)cc1)C(=O)c1cc(S(=O)(=O)N2CCOCC2)ccc1N1CCCC1,inconclusive: -31.5% [inhibitor]
25,CN1Cc2sc(NC(=S)NC(=O)c3ccccc3)c(C#N)c2CC1(C)C,inactive: 2.54%

row,Compound,activity change
1,CCOC(=O)c1c(S(=O)(=O)Nc2ccc(F)cc2Cl)c(C)n(C)c1C,inactive: -6.42%
2,COc1cc(/C=C2\SC(=O)N(c3ccc(Cl)cc3)C2=O)cc([N+](=O)[O-])c1O,inconclusive: -51% [inhibitor]
3,CC(C)[C@H](NC(=O)c1ccccc1Cl)C(=O)Nc1nc(-c2ccccn2)cs1,inactive: -18.2%
4,CCN(CC)S(=O)(=O)c1ccc(C(=O)NCCOC(=O)c2ccc(F)cc2F)cc1,inconclusive: -36.1% [inhibitor]
5,CC1=Nc2cc(C(=O)N3CCCC3)ccc2Sc2c(C)ccc(C)c21,inconclusive: -30.2% [inhibitor]
6,Cc1cc(/C([O-])=C(/C(=S)Nc2ccc(F)cc2)[n+]2ccccc2)c(C)n1Cc1ccccc1Cl,inconclusive: -35.7% [inhibitor]
7,O=C1SCCC1NC(=O)C(c1ccccc1)c1ccccc1 (stereo not given),inactive: -8.95%
8,Cc1ccc(/C=C/c2nc3ccccc3c(=O)[nH]2)cc1,active: -89.7%
9,CN(C(=O)OC(C)(C)C)c1ccc(-c2nc3ccccc3s2)cc1,inconclusive: -72.4% [inhibitor]
10,COc1cccc([C@@H]2CC=C(C(=O)O)[C@H](c3cccc(Cl)c3)N2S(=O)(=O)c2ccc(C)cc2)c1,inconclusive: -49.1% [inhibitor]
11,Cn1nc(N)c2c(-c3ccc(Cl)cc3)c(C#N)c(N)nc21,inconclusive: -52% [inhibitor]
12,Cc1ccc(CSc2nnc(Cn3c(=O)sc4ccccc43)n2C)cc1,inconclusive: -49.7% [inhibitor]
13,CCn1c(SCC(=O)Nc2ccccc2OC)nc2ccccc2c1=O,inactive: -9.97%
14,Cc1[nH]c2ccccc2c1C(=O)CN1CCN(C/C=C/c2ccccc2)CC1,inactive: 5.68%
15,CCn1c2ccccc2c2n[nH]c(=S)nc21,inconclusive: -43.4% [inhibitor]
16,CCOCCCN(C)C1CCN(C(=O)c2oc3ccccc3c2NC(=O)Cc2cccc([N+](=O)[O-])c2)CC1,inconclusive: -30.2% [inhibitor]
17,CCNc1ccc(N=Nc2c(C)n(C)n(-c3ccccc3)c2=O)cc1,active: -98.5%
18,CC1=NN(C(=O)COc2ccc(C)c(C)c2)C(O)(c2ccccc2)C1 (stereo not given),inactive: -1.3%
19,O=C(O)CC1(CC(=O)NCc2ccc(-c3cccs3)cc2)CCCCC1,inactive: -9.01%
20,CC1=NN(C(=O)Cn2nc([N+](=O)[O-])c(Br)c2C)C(O)(C(F)(F)F)C1 (stereo not given),inconclusive: -37.4% [inhibitor]
21,CCc1ccc(N=c2c([N+](=O)[O-])nn(-c3ccc4c(c3)OCCO4)n2O)cc1,inconclusive: -37% [inhibitor]
22,COc1cc(OC)cc(N(C(=O)c2ccco2)C(C(=O)NC2CCCC2)c2ccc(N3CCOCC3)cc2)c1 (stereo not given),inactive: -14.5%
23,O=C(NNC(=O)c1nc2ccccc2[nH]1)OCc1ccccc1,inconclusive: -39.3% [inhibitor]
24,Nc1ccn([C@@H]2O[C@H](CO)[C@@H](O)[C@@H]2O)c(=O)n1,inconclusive: -32% [inhibitor]
25,Nc1ncnc2c1ncn2C1CCCO1 (stereo not given),inconclusive: -42.7% [inhibitor]
